The results in this text go back to publication PMC4336329 (PLoS ONE, 2015).

Each structure is given as a SMILES string. In all, about 310,000 compounds went through this assay and about 2,200 (0.71%) showed an effect of 50% or more. Effects have a minus sign here. The list shows a part of the results.

In this test the target is human ether-à-go-go-related gene (hERG) potassium channel (human, UniProt Q12809). The test can be described thus: primary screen, population patch clamp on CHO cells stably expressing hERG.
Sequence of human ether-à-go-go-related gene (hERG) potassium channel (Q12809 whole entry, looked up): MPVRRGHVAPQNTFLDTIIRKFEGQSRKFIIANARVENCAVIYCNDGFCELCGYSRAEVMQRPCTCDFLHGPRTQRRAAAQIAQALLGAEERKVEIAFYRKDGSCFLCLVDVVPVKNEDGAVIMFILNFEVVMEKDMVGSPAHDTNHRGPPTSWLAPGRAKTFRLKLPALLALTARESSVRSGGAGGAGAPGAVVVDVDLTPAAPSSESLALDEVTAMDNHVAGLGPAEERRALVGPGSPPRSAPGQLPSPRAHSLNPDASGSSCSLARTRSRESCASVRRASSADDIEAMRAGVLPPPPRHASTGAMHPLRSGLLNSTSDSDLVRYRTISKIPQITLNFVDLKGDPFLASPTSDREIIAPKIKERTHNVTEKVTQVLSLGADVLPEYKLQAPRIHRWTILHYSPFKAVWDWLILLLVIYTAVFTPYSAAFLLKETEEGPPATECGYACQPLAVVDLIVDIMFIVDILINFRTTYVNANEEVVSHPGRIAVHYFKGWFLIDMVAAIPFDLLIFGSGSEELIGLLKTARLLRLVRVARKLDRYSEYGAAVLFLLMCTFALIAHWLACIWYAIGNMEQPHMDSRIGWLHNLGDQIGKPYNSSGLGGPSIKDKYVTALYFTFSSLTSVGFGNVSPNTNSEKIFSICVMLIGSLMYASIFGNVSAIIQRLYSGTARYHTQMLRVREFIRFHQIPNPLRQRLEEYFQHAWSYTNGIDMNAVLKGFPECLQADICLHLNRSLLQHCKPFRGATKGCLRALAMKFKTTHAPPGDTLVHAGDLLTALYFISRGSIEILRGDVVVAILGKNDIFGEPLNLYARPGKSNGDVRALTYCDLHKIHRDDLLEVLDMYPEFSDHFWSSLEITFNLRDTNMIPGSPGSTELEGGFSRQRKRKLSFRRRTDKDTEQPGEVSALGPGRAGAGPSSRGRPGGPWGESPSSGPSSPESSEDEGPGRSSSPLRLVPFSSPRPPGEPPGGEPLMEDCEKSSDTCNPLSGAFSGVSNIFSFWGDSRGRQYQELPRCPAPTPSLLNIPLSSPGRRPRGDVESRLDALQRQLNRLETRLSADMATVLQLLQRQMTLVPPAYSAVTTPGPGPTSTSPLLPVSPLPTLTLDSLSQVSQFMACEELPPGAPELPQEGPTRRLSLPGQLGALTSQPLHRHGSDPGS
Regarding `CCNC(=O)CC1C(=O)N(c2ccccc2)C(=O)N1Cc1ccc(OC)cc1` (stereo not shown), the “hERG current change (%, negative = inhibition) at 1uM” value is 14.4%.
In the case of `O=C(NCCCN1CCOCC1)c1ccccc1N1C(=O)[C@@H]2Cc3c([nH]c4ccccc34)C(c3cccc(Cl)c3)N2C1=O` (stereo partly shown), the “hERG current change (%, negative = inhibition) at 1uM” value is listed as -19.4%.
Then `Cc1c(C(=O)NC(C)C2CC3CCC2C3)cccc1[N+](=O)[O-]` (stereo not shown), with 12.7%.
With `Cl.c1coc(Cn2nnnc2CN2CCN(C3CCCCC3)CC2)c1` the figure was -13.5%; with `COc1ccc(-c2nn(-c3ccccc3)cc2/C=C/C(=O)OCC(=O)Nc2cccc(C#N)c2)cc1`, 5.97%.
Then `O=C(CSc1ccc2ccccc2n1)N/N=C/c1ccccc1O`, with 15.9%; and `CN1CCCN=C1COC(=O)C(O)(c1ccccc1)C1CCCCC1.Cl` (stereo not shown), with 14.6%.
With `O=C(CN1C(=O)NC2(CCCCC2)C1=O)Nc1ccc(Cl)c(S(=O)(=O)N2CCOCC2)c1`, the “hERG current change (%, negative = inhibition) at 1uM” value was 21.2%.
Then `COc1ccc2c(c1)c(=O)cc(-c1ccccc1)n2C`, with 8.15%; and `CCC(C)NS(=O)(=O)c1cc2c3c(c1)CCN3C(=O)CC2` (stereo not shown), with 19.7%; and `CCOC(=O)c1sc2nc(CC(=O)OC)nc(NCC(=O)OC)c2c1C`, with 9.63%.
Then `NS(=O)(=O)c1ccc(NS(=O)(=O)c2ccc(NC(=S)Nc3ccccc3)cc2)cc1`, with 9.35%; and `NC(=O)c1ncc(C(F)(F)F)cc1Oc1cccc(F)c1`, with 12.5%; and `O=C(OCC(=O)N1CCN(c2ccccc2)CC1)c1cc(Br)ccc1Cl`, with -3.93%.
`CCCn1c(C)c(C(=O)c2cccc3ccccc23)c2ccccc21`: the “hERG current change (%, negative = inhibition) at 1uM” value was determined as 8.01%.
As to `CCOC(=O)c1cc2occc2n1Cc1ccc(F)cc1`, the “hERG current change (%, negative = inhibition) at 1uM” value is reported as 21%.
With `COC(=O)c1[nH]c2ccc(C)cc2c1NC(=O)C1=COCCO1`, the “hERG current change (%, negative = inhibition) at 1uM” value is 8.92%.
Consider `CC(NC(=O)C(=O)Nc1nccs1)c1ccccc1` (stereo not shown), for which the “hERG current change (%, negative = inhibition) at 1uM” value was found to be 13.5%.
Then `Cc1ccc(OCC(=O)N/N=C\c2cccs2)c([N+](=O)[O-])c1`, with 9.22%; and `Cc1ccc(S(C)(=O)=O)cc1C(=O)NC(C)C1CC2CCC1C2` (stereo not shown), with 12.5%.
With `C[C@H]1[C@H](C)CC[C@]2(C)CC[C@]3(C)C(=CC[C@@H]4[C@@]5(C)CC[C@@H](O)[C@](C)(C(=O)O)[C@@H]5CC[C@]43C)[C@H]12` the figure was 13.6%; with `CCC(C)Nc1nc2c(c(=O)n(C)c(=O)n2C)n1Cc1cccc(C)c1` (stereo not shown), 8.01%; with `Cc1ccc(C2=N/C(=C\N3CCCCC3)C(=O)O2)cc1`, -4.78%.
With `Nc1nc(Nc2ccc(Cl)cc2)nc(NCCO)c1[N+](=O)[O-]` the figure was 26.7%.
As to `O=C(Nc1ccccc1C(=O)O)c1ccc(NC(=O)C2CC2)cc1`, the “hERG current change (%, negative = inhibition) at 1uM” value is recorded as 11.6%.
For the compound `O=C(CCc1cnccn1)NC1CCCc2c1cnn2-c1ccc(F)cc1F` (stereo not shown), the “hERG current change (%, negative = inhibition) at 1uM” value worked out at 2.91%.
With `CCN(CC(=O)Nc1ccc(NC(C)=O)cc1)C(=O)c1c(-c2c(F)cccc2Cl)noc1C` the figure was 14.9%; with `COc1cccc(-c2csc(N3CCN(C(=O)Nc4ccc(Cl)cc4)CC3)n2)c1`, 5.69%; with `O=C(NCCc1ccc(F)cc1)N1CCOCC1`, 4.37%.
On to `COCCCn1c(-c2ccc(S(=O)(=O)N3CCOCC3)cc2)csc1=Nc1ccccc1`, for which the “hERG current change (%, negative = inhibition) at 1uM” value is reported as -1.23%.
Then `O=C(C1CCN(S(=O)(=O)c2ccccc2F)CC1)N1CCc2ccccc2C1`, with -11.9%; and `CC(C)NC(=O)NC1C2CC3CC(C2)CC1C3` (stereo not shown), with 9.26%; and `Cc1cc2ncn(-c3ncnc4sc(C)c(C)c34)c2cc1C`, with 3.06%.
As to `CO/N=C(/CS(=O)(=O)c1ccc(C)cc1)c1ccc(OC)cc1`, the “hERG current change (%, negative = inhibition) at 1uM” value was determined as 12.3%.
With `COc1cc(/C=N/NC(=O)Cn2cnc3ccccc3c2=O)ccc1O` the figure was 15%; with `COc1ccc(NC(=O)CCNS(=O)(=O)c2ccc3c(c2)CC(C)N3C(C)=O)cc1` (stereo not shown), -1.9%; with `COc1ccc(C)cc1S(=O)(=O)N(CC(=O)Nc1cccc([N+](=O)[O-])c1)c1ccccc1`, 9.33%.
Then `Cc1cccc(NC(=S)N2CCC(O)CC2)c1C`, with 8.23%; and `C[C@H](NC(=O)N1CCn2c1nc1ccccc12)C(=O)NCc1ccccc1`, with 11.4%.
`COC(=O)[C@H](Cc1ccccc1)NC(=O)Nc1ccc(S(N)(=O)=O)cc1`: the “hERG current change (%, negative = inhibition) at 1uM” value is recorded as -5.61%.
Regarding `O=C(COc1ccc(Br)cc1Cl)NC(=O)NCc1ccccc1`, the “hERG current change (%, negative = inhibition) at 1uM” value was found to be 4.64%.
Then `CC(=O)c1c(C)[nH]c(C(=O)Nc2cccc(C)n2)c1C`, with 13.4%; and `Cc1ccc(-c2ccc(/C=N/N=C3/NC(=O)C(CC(=O)O)S3)o2)c([N+](=O)[O-])c1` (stereo not shown), with 13.7%; and `NS(=O)(=O)c1ccc(CCNC(=O)c2ccc(Cl)s2)cc1`, with 1.77%.
Then `CC1CCN(C(=O)CSc2nc(=O)n3cc(Cl)ccc3n2)CC1`, with 1.58%.
In the case of `CC(=O)COc1ccc2c(-c3cccc([N+](=O)[O-])c3)cc(=O)oc2c1`, the “hERG current change (%, negative = inhibition) at 1uM” value was 9.27%.
With `COc1ncnc(OC)c1NC(=O)c1ccc(F)cc1` the figure was 2.78%; with `COc1ccc(NS(=O)(=O)c2ccc(NC(=S)NC(=O)c3ccc(Br)cc3)cc2)nn1`, 1.6%.
`Cn1c(SCCCC(=O)c2ccc(F)cc2)nnc1-c1ccncc1`: the “hERG current change (%, negative = inhibition) at 1uM” value is -38.5%.
As for `CCC(C)c1c(O)nc(SCC(=O)c2ccccc2)[nH]c1=O` (stereo not shown), the “hERG current change (%, negative = inhibition) at 1uM” value came to 21.5%.
Regarding `COc1ccc(C(=O)NC(=S)N(C)C2CCCCC2)cc1`, the “hERG current change (%, negative = inhibition) at 1uM” value is 15.1%.
In the case of `N#C/C(=C\c1ccc(N2CCOCC2)o1)C(=O)NCCc1ccccc1`, the “hERG current change (%, negative = inhibition) at 1uM” value is given as 4.94%.
With `CC(C(=O)N1CCOCC1)n1cc([N+](=O)[O-])cn1` (stereo not shown) the figure was 16.1%; with `O=C(CSc1ccc2nnc(-c3ccccc3)n2n1)N1CCCc2ccccc21`, 0.0114%.
Then `Cc1cc(Nc2ccccc2O)c2ccccc2n1.Cl`, with 14.3%.
With `COc1ccc(N(C(=O)/C=C/C(=O)Nc2cc(C)on2)C(C(=O)NC2CCCC2)c2ccccc2C)cc1` (stereo not shown) the figure was 13.3%; with `COC(=O)C(Cc1ccccc1)NS(=O)(=O)c1ccc(F)cc1Br` (stereo not shown), 9.07%.
With `C/C(=N\NC(=O)c1cc(C)oc1C)c1ccc(C)c([N+](=O)[O-])c1`, the “hERG current change (%, negative = inhibition) at 1uM” value is 24.6%.
`COc1cccc(CN2CCN(C3CCN(c4cccc(C)c4C)CC3)CC2CCO)c1` (stereo not shown): the “hERG current change (%, negative = inhibition) at 1uM” value is given as -30%.
With `Cc1ccc(S(=O)(=O)/N=S(/c2ccccc2)C(C)C)cc1` (stereo not shown) the figure was 15.1%.
Then `COc1ccc(-c2noc(C(=O)NCc3ccc(F)cc3)n2)cc1OC`, with 6.17%; and `Cc1ccccc1N(CC(=O)Nc1ccc(S(=O)(=O)N2CCOCC2)cc1)S(C)(=O)=O`, with 1.63%; and `O=C(OCC(=O)N1CCc2ccccc21)c1ccc[nH]c1=O`, with 13.8%.
Then `O=C(CCSc1ccccc1)NCC1CCCO1` (stereo not shown), with 5.36%; and `COc1cccc(NC(=O)c2ccc[n+](C)c2)c1.[I-]`, with 8.89%.
`Cc1c(C(C)NC(=O)c2ccc3nc(Cc4ccccc4F)oc3c2)cnn1C` (stereo not shown): the “hERG current change (%, negative = inhibition) at 1uM” value is listed as 15.2%.
With `COc1ccc(CC(=O)N2CC3(C)CC2CC(C)(C)C3)cc1OC` (stereo not shown) the figure was -3.57%; with `CCc1nnc(NC(=O)CCC(=O)Nc2ccc(OC)cc2OC)s1`, 18.1%; with `O=c1[nH]c2ccccc2cc1CN(Cc1ccco1)S(=O)(=O)c1ccccc1`, 15.6%.
Then `CCOC(=O)c1c(C)nc2sc3c(c2c1-c1ccc(OC)cc1)NC(c1ccc(OC)cc1)NC3=O` (stereo not shown), with 12.9%; and `O=C(Nc1ccccc1)C1=C[C@@H](c2coc3ccccc3c2=O)C[C@@H](OCc2ccc(CO)cc2)O1`, with 6.46%.
On to `COc1ccc(O)c(C(=O)c2cnc3c(c2)c(-c2ccc(F)cc2)c(C#N)c(=O)n3C)c1`, for which the “hERG current change (%, negative = inhibition) at 1uM” value is 10.7%.
Then `Fc1ccc(-c2cc(C(F)(F)F)n3ncnc3n2)cc1`, with 0.0583%; and `CCOC(=O)c1cc2c(=O)n3ccccc3nc2n(C)c1=NC(=O)c1c(-c2c(F)cccc2Cl)noc1C`, with 10.5%.
On to `CCCCn1cc(C(=O)c2cc(Br)ccc2O)cc(C#N)c1=O`, for which the “hERG current change (%, negative = inhibition) at 1uM” value is listed as 13.4%.
`CC1CC(C)CN(C(=O)c2ccc3nc[nH]c3c2)C1` (stereo not shown): the “hERG current change (%, negative = inhibition) at 1uM” value is given as 8.66%.
Then `C/C(=N\O)c1ccc2c3c([nH]c2c1)CCCC3`, with 5.78%.
For `CCCCNC(=O)C1CC(=O)N(c2ccc(OC)cc2)C1c1ccc(OC)cc1` (stereo not shown), the “hERG current change (%, negative = inhibition) at 1uM” value was determined as 8.88%.
Consider `O=C(CSc1nnc(NC(=O)Cc2ccccc2)s1)NCC1CCCO1` (stereo not shown), for which the “hERG current change (%, negative = inhibition) at 1uM” value stood at 11.8%.
As for `Cc1ccc(C)c(NC(=O)CCC(=O)N/N=C2/CC(=O)CC(C)(C)C2)c1`, the “hERG current change (%, negative = inhibition) at 1uM” value is reported as 13.2%.
Take `CC1(C)OC(C(O)(c2ccccc2)c2ccccc2)[C@@H](C(O)(c2ccccc2)c2ccccc2)O1` (stereo partly shown): the “hERG current change (%, negative = inhibition) at 1uM” value is reported as 8.96%.
As for `O=C(NC1CCCCCC1)c1cc(S(=O)(=O)N2CCOCC2)ccc1F`, the “hERG current change (%, negative = inhibition) at 1uM” value came out at 15%.
With `COC(=O)c1cc(=O)n2c(-c3ccccc3)csc2n1` the figure was -3.98%.
As to `COc1cccc(-c2coc3c(C)c4oc(=O)c(CC(=O)O)c(C)c4cc23)c1`, the “hERG current change (%, negative = inhibition) at 1uM” value turned out to be 8.88%.
`COc1ccc(S(=O)(=O)N2CCC(C(=O)Nc3ccccc3N3CCCCC3)CC2)cc1OC`: the “hERG current change (%, negative = inhibition) at 1uM” value is 14.9%.
